Results reported in the supplement of paper PMC12645437, “Orthogonal IMiD-Degron Pairs Induce Selective Protein Degradation in Cells” (ACS Chemical Biology, 2025).
The other results are listed elsewhere or left out.

B1: Q9UKT9 (peptide)
chain: FNCNQCGRSFTQKGNLLRHIKL
B2: Q9UKT9 (peptide)
chain: FRCNVCGANFTQKGNLLRHIKL
B3: Q9UKT9 (peptide)
chain: FICDICGAFFTQKGNLLRHIKL
B4: Q9UKT9 (peptide)
chain: FACDICGAGFTQKGNLLRHIKL
B5: Q9UKT9 (peptide)
chain: FQCPICGRFFTQKGNLLRHIKL
B6: Q9UKT9 (peptide)
chain: FICEICGAHFTQKGNLLRHIKL
B7: Q9UKT9 (peptide)
chain: FMCSVCGHNFTQKGNLLRHIKL
B8: Q9UKT9 (peptide)
chain: FACDQCGAFFTQKGNLLRHIKL
B9: Q9UKT9 (peptide)
chain: FNCPICGHEFTQKGNLLRHIKL
B10: Q9UKT9 (peptide)
chain: FGCNQCGAVFTQKGNLLRHIKL
B11: Q9UKT9 (peptide)
chain: FSCNVCGAFFTQKGNLLRHIKL
B12: Q9UKT9 (peptide)
chain: FYCEVCGASFTQKGNLLRHIKL
B13: Q9UKT9 (peptide)
chain: LQCNQCGFLCTQKGNLLRHIKL
B14: Q9UKT9 (peptide)
chain: FLCSVCGHEFTQKGNLLRHIKL
B15: Q9UKT9 (peptide)
chain: FICNVCGAGFTQKGNLLRHIKL
B16: Q9UKT9 (peptide)
chain: FMCNICGAQFTQKGNLLRHIKL
B17: Q9UKT9 (peptide)
chain: FKCEVCGAVFTQKGNLLRHIKL
B18: Q9UKT9 (peptide)
chain: FMCEICGHGFTQKGNLLRHIKL
B19: Q9UKT9 (peptide)
chain: FSCPICGATFTQKGNLLRHIKL
B20: Q9UKT9 (peptide)
chain: LMCNQCGFECTQKGNLLRHIKL
B21: Q9UKT9 (peptide)
chain: FHCPVCGANFTQKGNLLRHIKL
B22: Q9UKT9 (peptide)
chain: FHCPVCGAGFTQKGNLLRHIKL
B23: Q9UKT9 (peptide)
chain: FRCNICGAEFTQKGNLLRHIKL
B24: Q9UKT9 (peptide)
chain: LWCNQCGFRCTQKGNLLRHIKL
B25: Q9UKT9 (peptide)
chain: FICNQCGAYFTQKGNLLRHIKL
B26: Q9UKT9 (peptide)
chain: FTCDVCGAYFTQKGNLLRHIKL
B27: Q9UKT9 (peptide)
chain: FHCPICGATFTQKGNLLRHIKL
B28: Q9UKT9 (peptide)
chain: FKCDQCGADFTQKGNLLRHIKL
B29: Q9UKT9 (peptide)
chain: FYCNICGAPFTQKGNLLRHIKL
B30: Q9UKT9 (peptide)
chain: FDCNQCGAEFTQKGNLLRHIKL
B31: Q9UKT9 (peptide)
chain: FFCEICGAGFTQKGNLLRHIKL
B32: Q9UKT9 (peptide)
chain: FFCEICGHMFTQKGNLLRHIKL

Target: no compound (DMSO)
Assay: log2 fold change of degron read counts, EGFP-low vs EGFP+ sorted cells; higher = lower degron-EGFP level without compound (poor expression or instability)
Conditions: compound: DMSO control; 18 h
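Also: jurkat cells carrying a lentiviral library of mutant zinc finger degrons fused to EGFP plus mCherry, mCherry+ cells FACS sorted, degron abundance counted by next-generation sequencing.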

Sequence | log2 fold change of degron read counts
B1 | -0.12
B2 | -1.06
B3 | -0.453
B4 | -1.41
B5 | -0.0784
B6 | -2.24
B7 | -0.296
B8 | -0.975
B9 | -0.786
B10 | 0.281
B11 | 0.413
B12 | -1.08
B13 | 0.017
B14 | -0.665
B15 | -0.712
B16 | -0.524

Sequence | log2 fold change of degron read counts
B17 | -2.28
B18 | -1.95
B19 | -0.242
B20 | 0.284
B21 | -0.321
B22 | -0.165
B23 | -2.64
B24 | 2.28
B25 | -0.234
B26 | -1.36
B27 | -0.839
B28 | -3.43
B29 | 0.341
B30 | -1.18
B31 | -0.723
B32 | 0.177
